# Measurements published in PubChem BioAssay AID651820 (National Center for Advancing Translational Sciences (NCATS), 2012).
# In all, about 340,000 compounds went through this assay and about 12,000 (3.5%) were called active. Inconclusive means that the source gave no clear call. Such entries were picked first, then a sample of the others. The call rests on the fitted dose curve; in most records, active means well fitted inhibition curve with a large enough effect; inconclusive means small, poorly fitted or top-dose-only effect, or another doubt; inactive means no such curve, though single readings can be large or run the other way. Potencies of inconclusive entries are left out as doubtful fits.
# Assay: qHTS Assay for Inhibitors of Hepatitis C Virus (HCV)
# Conditions: Huh7.5.1 HCVcc-Cre (HCVcc is cell-culture hepatitis C virus) infection, luciferase reporter, 44 h; activity change, negative = inhibition: at 41.8 µM (top of the series) unless noted
# Method in brief: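 A cell-based infection assay in which seeded cells (1,000 per well) receive test compound after 4 h, are inoculated with HCVcc-Cre at approximately 0.5 moi, and are incubated 44 h before luminescence detection.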
# On the % scale 0 is the no-effect control and ±100 the full control effect; potency means the concentration at half of the fitted maximal effect; tags describe the fitted curve by direction and shape.
Compound,Potency,"activity change, negative = inhibition"
CCOC(=O)Cn1nnc(-c2cccc(OC)c2)n1,"inconclusive [inhibitor, single point]",
O=c1cc(-c2ccncc2)oc2c1ccc1ccccc12,"inconclusive [inhibitor, single point]",
COc1c(-c2ccccc2)oc2c(ccc3occc32)c1=O,"inconclusive [inhibitor, single point]",
COc1ccc(/C=N/NC(=O)Cn2nnc3ccccc32)cc1OC,,inactive: -9.6%
Cc1ccc(CN2[C@@H](CC3CCCCC3)COCCS2(=O)=O)cc1,,inactive: -3.73%
COc1ccc(OC)c(NC(=O)C(C)OC(=O)c2cc3ccccc3[nH]2)c1 (configuration not stated),active: 11.2 µM,
COc1ccc(-c2cc(C(F)(F)F)nc(SCC(=O)Nc3cc(C)on3)n2)cc1OC,"inconclusive [inhibitor, full curve, poor fit]",
O=C(c1ccc2c(=O)n(-c3ccccc3)c(=S)[nH]c2c1)N1CCN(c2ccccc2)CC1,active: 11.2 µM,
COc1ccc2c(c1)c(C(=O)CNc1nc(C)cs1)c(C)n2C,"inconclusive [inhibitor, single point]",
O=C(Nc1ccc(OC(F)(F)C(F)F)c(NC(=O)c2ccc(F)cc2)c1)c1ccc(F)cc1,"inconclusive [inhibitor, full curve]",
COc1cccc(OCc2cc(C(=O)N(C)CCC3CCCCO3)no2)c1 (configuration not stated),,inactive: -24%
COc1ccc(NC(=O)CSc2ncc(-c3ccc(F)cc3)n2Cc2ccco2)cc1,"inconclusive [inhibitor, single point]",
CC(=O)c1ccc(-c2nc3c4ccccc4ccn3c2C(C)=O)o1,,inactive: -4.57%
COc1cccc2c1C(CCCC(=O)O)CCC2 (configuration not stated),,inactive: 4.86%
CCCCc1ccc(NC(=S)NCC2CCCO2)cc1 (configuration not stated),"inconclusive [inhibitor, partial curve, poor fit]",
CC1CCCCC12NC(=O)N(CC(=O)Nc1ccc(N3CCCCC3)cc1)C2=O (configuration not stated),"inconclusive [inhibitor, single point]",
CCCN(CCC)S(=O)(=O)c1cccc(-c2csc(C)n2)c1,,inactive: -2.15%
O=P(O)(O)c1ccccc1OCCOCCOCCOCCOc1ccccc1P(=O)(O)O,,inactive: 6.16%
CCOc1ccc(Oc2ccccc2NC(=O)CSCC(=O)Nc2cc(C)on2)cc1,active: 8.91 µM,
Cc1nn(-c2ccccc2)c(Cl)c1/C=N/NC(=O)c1ccccc1F,"inconclusive [inhibitor, partial curve]",
CCOC(=O)N1CCN(c2nc(-c3ccccc3)c3cc(C)ccc3n2)CC1,"inconclusive [inhibitor, partial curve]",
CCOC(=O)N1CCC(NC(=O)c2ccc3c(c2)N=C(CC)c2cc(C)ccc2S3)CC1,active: 3.16 µM,
Cn1c(C(=O)NC2CCCC2)cc2c(=O)n(C)c3ccccc3c21,"inconclusive [inhibitor, single point]",
Cc1ccc(Cn2c(C)nc3c(c2=O)c2nc4ccccc4nc2n3Cc2ccco2)cc1,"inconclusive [inhibitor, single point]",

Compound,Potency,"activity change, negative = inhibition"
Cc1c(N=Nc2c(O)n(-c3ccc(Br)cc3)c(=O)[nH]c2=O)c(=O)n(-c2ccccc2)n1C,,inactive: 15.8%
COc1ccc(NS(=O)(=O)c2cccc(C(=O)OCC(=O)N3CCN(c4ccc(OC)cc4)CC3)c2)cc1,"inconclusive [inhibitor, partial curve]",
CC(=O)c1ccc(OCC(O)CNCc2ccc3c(c2)OCO3)cc1 (configuration not stated),,inactive: -1.25%
CN(C)C1=NC[C@H](Cc2ccccc2)N1CCCC1CCCCC1,active: 3.98 µM,
Cc1cc(C(=O)c2ccc(Cl)cc2)c(NC(=O)CCl)s1,"inconclusive [inhibitor, single point]",
O=C(Nc1ccc(O)c(-c2nc3ccccc3s2)c1)c1cccs1,"inconclusive [inhibitor, partial curve]",
Oc1[nH]c2c(Cl)cc(Cl)cc2c1N=NC(=S)NCC1CCCO1 (configuration not stated),"inconclusive [inhibitor, single point]",
Cc1ccc(OCC(=O)O/N=C(\N)c2ccncc2)cc1C,,inactive: -24.8%
Cc1ccc(C)c(NC(=S)NC(NC(=O)Cc2cccc3ccccc23)C(Cl)(Cl)Cl)c1 (configuration not stated),active: 2.24 µM,
CCC(=O)N1CCc2cc(-c3csc(NC(=O)c4ccco4)n3)ccc21,"inconclusive [inhibitor, full curve, poor fit]",
COc1ccc2cc(C#N)c(N3CCN(Cc4nnnn4CCC(C)C)CC3)nc2c1,"inconclusive [inhibitor, single point]",
Cc1ccc(-n2nc3c(=O)n(CC(=O)NCCc4ccccc4C)nc(C)c3c2C)cc1,active: 5.01 µM,
CC(=O)c1c(C)[nH]c(C(=O)Nc2cccc(S(=O)(=O)N(C)C)c2)c1C,"inconclusive [inhibitor, partial curve]",
CCCC(=O)Nc1sc(C(=O)Nc2cccc(N)c2)c(C)c1C(=O)OC,"inconclusive [inhibitor, partial curve, poor fit]",
COc1cccc(COCC(O)Cn2cnc3cc(C)c(C)cc32)c1 (configuration not stated),,inactive: -17.8%
CCOC(=O)C1CCN(C(=O)CSc2cc(=O)n(C)c3ccccc23)CC1,,inactive: 9.61%
NS(=O)(=O)c1ccc(N=Nc2c(O)ccc3ccccc23)cc1,,inactive: -19.8%
COc1cc(CC(=O)Nc2cccc(SC)c2)cc(OC)c1OC,active: 14.1 µM,
CC(C)(C)NC(=O)c1ccc2nsnc2c1,,inactive: -0.343%
Cc1nn(-c2ccccc2)c(C)c1/C=N/N1CCN(c2ccccc2)CC1,"inconclusive [inhibitor, partial curve, poor fit]",
C=CCNC(=O)/C(C#N)=C/c1cc(Br)ccc1OC,"inconclusive [inhibitor, single point]",
O=C1CN(C(=O)/C=C/c2cccc(Cl)c2)c2ccccc2N1,active: 14.1 µM,
Cc1ccc(C(=O)c2oc3ccc(Cl)cc3c2NC(=O)CN2CCN(C)CC2)cc1,"inconclusive [inhibitor, partial curve]",
OC1(c2cccs2)CN(c2ccc(Br)cc2)C2=[N+]1CCCS2 (configuration not stated),"inconclusive [inhibitor, single point]",

Compound,Potency,"activity change, negative = inhibition"
COc1cccc(CN(C)C(=O)C(CCSC)NS(=O)(=O)c2ccc3c(c2)OCCO3)c1OC (configuration not stated),"inconclusive [inhibitor, partial curve]",
Cc1ccc(OCc2nnc(SCc3nc4ccccc4[nH]3)n2Cc2ccco2)cc1,active: 10 µM,
COC(=O)CSc1nnc(NC(=O)c2ccc3c(c2)OCO3)s1,,inactive: 17.3%
COc1ccc(N(CC(=O)NCCC2=CCCCC2)S(=O)(=O)c2ccccc2F)cc1,"inconclusive [inhibitor, partial curve]",
FC(F)(F)c1ccc2c3n(nc2c1)CCN=C3c1ccc(Cl)cc1,"inconclusive [inhibitor, single point]",
COc1ccc(NS(=O)(=O)c2ccc3oc(SC(C)C(N)=O)nc3c2)cc1 (configuration not stated),active: 10 µM,
CN1CCN(c2ncnc3c2c(-c2ccccc2)cn3-c2ccc(F)cc2)CC1,"inconclusive [inhibitor, single point]",
CC1CCC(CN2C(Nc3ccccc3)=NC[C@@H]2Cc2ccccc2)CC1 (some centres not stated),active: 7.94 µM,
CCn1c(O)c(C=NCCN2CCOCC2)sc1=S,,inactive: 1.55%
Cc1ccc(-c2cc3nc(-c4ccccc4)cc(N4CCOCC4)n3n2)cc1,"inconclusive [inhibitor, full curve, poor fit]",
COc1cc(NC(=O)COc2ccccc2Cl)ccc1NC(=O)c1cccs1,active: 1.12 µM,
O=C(CCC1CCN(C(=O)c2cc(C(F)(F)F)ccc2Cl)CC1)NC1CC1,,inactive: -0.102%
C[C@]12CCC3C(CC[C@H]4C[C@H](O)CC[C@]34C)C1C[C@@H](CCCCl)[C@@H]2O (some centres not stated),"inconclusive [inhibitor, single point]",
CCOc1ccc(OCC)c(NC(=O)C2C3C=CC(O3)C2C(=O)NCc2ccco2)c1 (configuration not stated),"inconclusive [inhibitor, full curve, poor fit]",
O=C(Cc1ccc(S(=O)(=O)N2CCOCC2)s1)Nc1ccc2c(c1)CCC2,"inconclusive [inhibitor, single point]",
Cc1cc(=O)n2c3ccccc3n(CC(O)CN3CCN(CCO)CC3)c2c1C#N (configuration not stated),"inconclusive [inhibitor, full curve]",
O=C(NN1C(=O)C2C(c3ccccc3)C=CC(c3ccccc3)C2C1=O)c1cccc(Br)c1 (configuration not stated),,inactive: -2.29%
CCOc1ccc(NC(=O)CN(C)C(=O)c2cn(-c3ccc(C)cc3)nc2-c2cccc(OC)c2)cc1OCC,"inconclusive [inhibitor, single point]",
CC1Nc2ncnc(N3CCc4ccccc4C3)c2N(Cc2ccc(Br)cc2)C1=O (configuration not stated),"inconclusive [inhibitor, partial curve]",
CCCCC1CCC(C(=O)N(CCCC)c2c(N)n(CCCC)c(=O)[nH]c2=O)CC1 (configuration not stated),"inconclusive [inhibitor, single point]",
O=[N+]([O-])c1ccc(Sc2nccn2Cc2ccccc2)c([N+](=O)[O-])c1,"inconclusive [inhibitor, single point]",
Cc1cccc(CSc2nc3c(cc2C#N)CN(C)CC3)c1,active: 14.1 µM,
COc1ccc(/C=C/C(=O)N2CCCc3ccccc32)c(OC)c1,,inactive: -29.9%
COc1cc(NC(=O)CSc2nnc(C)s2)cc(OC)c1OC,"inconclusive [inhibitor, single point]",
